Reference: PubChem BioAssay (NCATS)
Several values for one entry are separate records, joined by “and”; a condition that tells them apart may be missing. Equal entries are not always repeated. Inconclusive results, whose numbers are uncertain, are shown with a selection of clear calls. For part of these data: Potencies beside an inconclusive call are fits to weak or partial responses and may not hold up. Some structures have more than one record in an assay (separate samples or runs), and their calls can disagree. Activity calls are given as the source filed them. Unless noted, calls follow the shape of the dose curve; as a rule, active = well fitted curve in the direction sought with a large enough effect; inconclusive = small, poorly fitted or top-dose-only effect, or another doubt; inactive = no such curve, though single readings can be large; an effect the other way counts as inactive or inconclusive.

How the values were obtained:
[1] = qHTS Screen of the MIPE 4.0 Collection Against Ewings Sarcoma (RDES) (AID 1259252); also: nearly all actives have a fitted effect of over 35% in size; also: potency is read from the fitted curve at half-maximal effect;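 as to viability (percent of control): 100% = DMSO-treated cells and 0% = medium-only wells without cells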
How it was run: (§1)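 Viability screen: 48 h incubation at 37C, 95% humidity, 5% CO2 with serially titrated compound, followed by CellTiter-Glo readout.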

[2] = qHTS Screen of the MIPE 4.0 Collection Against Ewings Sarcoma (EW8) (AID 1259255); also: nearly all actives have a fitted effect of over 35% in size; also: potency is read from the fitted curve at half-maximal effect;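 as to viability: 100% = DMSO-treated cells and 0% = medium-only wells without cells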
How it was run: as §1

[3] = P-glycoprotein substrates identified in KB-8-5-11 adenocarcinoma cell line, qHTS therapeutic library screen (AID 1346987); also: nearly all actives have a fitted effect of over 65% in size; also: potency is read from the fitted curve at half-maximal effect
How it was run: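 P-gp-mediated resistance screen: KB-8-5-11 cells treated 72 h with compounds in dose-response. CellTiter-Glo viability.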

[4] = Identifying Small Molecule Inhibitors of Pancreatic Cancer Stem Cells (A2780, Spheroid) (AID 1259357); details: Potency: A2780 spheroid viability; viability (percent of control): at 46.1 µM (top of the series);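 also: compound exposure lasted 48 h before the ATP luminescence read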; also: potency is read from the fitted curve at half-maximal effect;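 as to viability (percent of control): 100% = DMSO treated cells and 0% = wells without cells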
How it was run: (§2)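 After a 4 h attachment period, compounds were pinned into wells and cultures held 48 h under standard incubator conditions. Viability was then measured as CellTiter-Glo luminescence following 10 min at room temperature.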

[5] = Identifying Small Molecule Inhibitors of Pancreatic Cancer Stem Cells (Panc1, Adherent) (AID 1259362); details: Potency: viability; viability, % of control: at 46.1 µM (top of the series); also: potency is read from the fitted curve at half-maximal effect
How it was run: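 Pre-formed 14-day tumor spheroids or adherent cells dosed and incubated 48 h, 37C, 5% CO2. Viability assessed by CellTiter-Glo.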

[6] = qHTS Screen of the MIPE 4.0 Collection Against Ewings Sarcoma (TC32) (AID 1259256); also: nearly all actives have a fitted effect of over 45% in size; also: potency is read from the fitted curve at half-maximal effect;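 as to viability (percent of control): 100% = DMSO-treated cells and 0% = medium-only wells without cells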
How it was run: as §1

[7] = qHTS assay to identify small molecule inhibitors of chordoma cells - UCH-1 (AID 1259355); also: potency is read from the fitted curve at half-maximal effect; nearly all actives have a fitted effect of over 55% in size
How it was run: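 Cells (800/well) were seeded and left overnight at 37 C, 5% CO2, then treated with drugs at 15 concentrations plus a combination mix of auranofin, camptothecin, doxorubicin, rubitecan and topotecan. Viability after 48hr was read by CellTiter-Glo luminescence.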

[8] = Identifying Small Molecule Inhibitors of Pancreatic Cancer Stem Cells (Panc1, Spheroid) (AID 1259359); details: Panc1 spheroid cancer stem cell viability; viability, % of control: at 46.1 µM (top of the series);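 also: potency is read from the fitted curve at half-maximal effect; compound exposure lasted 48 h before reading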
How it was run: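 Luminescent ATP readout (CellTiter-Glo) quantifies surviving cells after a 48 h drug incubation. Normalization uses DMSO wells as no inhibition and media-only wells as full inhibition; bortezomib served as positive control.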

[9] = Identifying Small Molecule Inhibitors of Pancreatic Cancer Stem Cells (SN12C, Spheroid) (AID 1259360); details: Potency: SN12C spheroid viability; also: potency is read from the fitted curve at half-maximal effect
How it was run: as §2

[10] = Identifying Small Molecule Inhibitors of Pancreatic Cancer Stem Cells (A278, Adherent) (AID 1259361); details: viability (% of control): at 46.1 µM (top of the series);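 also: viability read after 48 h compound exposure; nearly all actives have a fitted effect of over 35% in size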
How it was run: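 Monolayer and spheroid cultures are compared. Spheroids form over 14 days in stem cell medium on hydrogel-coated low-attachment plates, then are exposed to compound for 48 h before CellTiter-Glo luminescence.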

[11] = target: Atrial natriuretic peptide receptor 1 (Homo sapiens) (UniProt P16066); assay: Natriuretic polypeptide receptor (hNpr1) antagonism - Pilot screen (AID 1347049; calls by dose curve;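 also: agonist-evoked cGMP luminescence read 20 min after hNppA addition; potency is read from the fitted curve at half-maximal effect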)
How it was run: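 HEK293 cells expressing hNpr1 and GloSensor cGMP luciferase, 1500/well, loaded with 2% GloSensor reagent 2 h, compound 30 min at room temperature; luminescence read before and 20 min after 0.1 nM hNppA stimulation.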

[12] = qHTS Assay for Identifying Gametocytocidal Compounds (AID 743244); also: potency is read from the fitted curve at half-maximal effect; details: P. falciparum 3D7 stage III-V gametocytes, alamarBlue, 72 h; max response: stronger effect = lower value
How it was run: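 Viability read-out was resazurin reduction (alamarBlue, 24 h) measured at Ex 525/Em 598 nm. Beforehand, late-stage (III-V) 3D7 P. falciparum gametocytes at 20,000 cells/well were incubated with compound 72 h at 37C under 5% CO2.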
Tags tell the direction and shape of the fitted curve.

UniProt P16066, sequence (P16066 whole entry, looked up): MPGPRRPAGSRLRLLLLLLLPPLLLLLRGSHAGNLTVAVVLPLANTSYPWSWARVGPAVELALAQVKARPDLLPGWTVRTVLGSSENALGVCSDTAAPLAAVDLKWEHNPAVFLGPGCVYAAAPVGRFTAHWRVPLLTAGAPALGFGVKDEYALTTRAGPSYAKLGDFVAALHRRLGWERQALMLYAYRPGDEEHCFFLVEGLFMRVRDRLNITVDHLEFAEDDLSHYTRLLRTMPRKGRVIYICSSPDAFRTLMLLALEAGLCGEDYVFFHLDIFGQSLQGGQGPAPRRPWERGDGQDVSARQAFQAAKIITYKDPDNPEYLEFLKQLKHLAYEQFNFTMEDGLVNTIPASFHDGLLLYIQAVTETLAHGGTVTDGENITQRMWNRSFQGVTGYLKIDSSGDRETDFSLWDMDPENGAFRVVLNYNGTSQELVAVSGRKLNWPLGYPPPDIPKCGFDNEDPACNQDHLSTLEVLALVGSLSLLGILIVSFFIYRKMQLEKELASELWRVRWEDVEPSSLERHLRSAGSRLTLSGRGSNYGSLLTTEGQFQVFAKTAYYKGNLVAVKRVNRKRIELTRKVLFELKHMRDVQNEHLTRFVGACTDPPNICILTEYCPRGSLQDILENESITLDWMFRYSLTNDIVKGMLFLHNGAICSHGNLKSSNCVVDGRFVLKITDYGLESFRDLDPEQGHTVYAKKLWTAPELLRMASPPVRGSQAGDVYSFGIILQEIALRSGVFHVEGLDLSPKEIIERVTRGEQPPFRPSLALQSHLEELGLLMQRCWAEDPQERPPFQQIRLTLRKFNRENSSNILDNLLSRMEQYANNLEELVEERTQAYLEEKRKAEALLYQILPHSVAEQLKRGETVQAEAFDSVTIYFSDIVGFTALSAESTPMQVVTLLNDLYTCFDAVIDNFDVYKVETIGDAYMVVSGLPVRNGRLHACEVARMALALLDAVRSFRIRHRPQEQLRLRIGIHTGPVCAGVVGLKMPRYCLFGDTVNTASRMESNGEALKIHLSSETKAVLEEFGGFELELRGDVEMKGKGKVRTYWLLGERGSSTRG

In the case of CC(C)N(CCCNC(=O)Nc1ccc(C(C)(C)C)cc1)C[C@H]1O[C@@H](n2cc(Br)c3c(N)ncnc32)[C@H](O)[C@H]1O, the Potency [1] is reported as active: 23.5 µM, the Potency [2] is reported as inconclusive: 18.7 µM [inhibitor, partial curve] and the Potency [3] is reported as “inactive”.
With Cc1coc2c1C(=O)C(=O)c1c-2ccc2c1CCCC2(C)C the Potency [1] was “inactive”, the Potency [2] was “inactive” and the Potency [3] was active: 9.2 µM.
With Nc1nc2[nH]cc(CCc3ccc(C(=O)N[C@@H](CCC(=O)O)C(=O)O)cc3)c2c(=O)[nH]1 the Potency [1] was inconclusive: 0.264 µM [inhibitor, full curve], the Potency [2] was inconclusive: 0.372 µM [inhibitor, full curve] and the Potency [4] was “inactive”. For the same compound, the Potency [5] was inconclusive: 33.2 µM [cytotoxic, single point] and the Potency [3] was inconclusive: 1.66 µM [inhibitor, full curve] and inconclusive: 13 nM [inhibitor, full curve].
With CCC[C@H](N[C@@H](C)C(=O)N1[C@@H]2CCCC[C@H]2C[C@H]1C(=O)O)C(=O)OCC the Potency [1] was “inactive”, the Potency [2] was inconclusive: 6.62 µM [inhibitor, partial curve, poor fit] and the Potency [6] was “inactive”. For the same compound, the Potency [3] was inconclusive: 14.8 µM [inhibitor, partial curve].
In the case of S=c1nc[nH]c2nc[nH]c12, the Potency [1] is reported as inconclusive: 2.09 µM [inhibitor, full curve], the Potency [2] is reported as active: 2.64 µM and the Potency [7] is reported as inconclusive: 7.94 µM [cytotoxic, partial curve, poor fit]. The Potency [4] was inconclusive: 3.4 µM [cytotoxic, partial curve], the Potency [8] was inconclusive: 3.03 µM [cytotoxic, full curve, poor fit] and the Potency [9] was inconclusive: 42.9 µM [cytotoxic, partial curve, poor fit]. The Potency [5] was active: 5.4 µM.
With C[C@]1(c2nc3c(C(N)=O)cccc3[nH]2)CCCN1 the Potency [1] was inconclusive: 26.4 µM [inhibitor, partial curve, poor fit], the Potency [2] was “inactive” and the viability (percent of control) [4] was inconclusive: 127%. The Potency [9] was inconclusive: 20.9 µM [cytotoxic, partial curve, poor fit], the IC50 (viability decrease) [10] was active: 18.7 µM and the Potency [5] was inconclusive: 20.9 µM [cytotoxic, partial curve, poor fit].
With CC#CCn1c(N2CCC[C@@H](N)C2)nc2c1c(=O)n(Cc1nc(C)c3ccccc3n1)c(=O)n2C the Potency [1] was inconclusive: 29.6 µM [inhibitor, single point], the Potency [2] was inconclusive: 26.4 µM [inhibitor, single point] and the Potency [6] was inconclusive: 33.2 µM [inhibitor, single point]. For the same compound, the Potency [3] was “inactive”.
With CS(=O)(=O)N1CCN(Cc2cc3nc(-c4cccc5[nH]ncc45)nc(N4CCOCC4)c3s2)CC1 the Potency [1] was active: 1.18 µM, the Potency [2] was active: 1.66 µM and the Potency [4] was inconclusive: 0.469 µM [cytotoxic, full curve]. The Potency [9] was inconclusive: 3.72 µM [cytotoxic, partial curve] and the Potency [5] was active: 0.59 µM.
In the case of NC(=O)[C@@H](CCC(F)(F)F)N(Cc1ccc(-c2ncon2)cc1F)S(=O)(=O)c1ccc(Cl)cc1, the Potency [1] is reported as inconclusive: 0.935 µM [inhibitor, full curve, poor fit], the Potency [2] is reported as inconclusive: 23.5 µM [inhibitor, single point] and the Potency [6] is reported as active: 14.8 µM. For the same compound, the Potency [3] was inconclusive: 7.43 µM [inhibitor, partial curve].
With O=c1c(O)c(-c2cc(O)c(O)c(O)c2)oc2cc(O)cc(O)c12 the Potency [1] was active: 16.6 µM, the Potency [2] was inconclusive: 23.5 µM [inhibitor, partial curve] and the Potency [6] was “inactive”. For the same compound, the Potency [11] was inconclusive: 23.9 µM [inhibitor, single point].
In the case of CCOC(=O)C1=C[C@]2(CC)CCCN3CCc4c(n1c1ccccc41)[C@@H]32, the Potency [12] is reported as inconclusive: 35.5 µM [inhibitor, single point] and inconclusive: 22.4 µM [inhibitor, partial curve], the Potency [1] is reported as active: 23.5 µM and the Potency [2] is reported as active: 18.7 µM. For the same compound, the Potency [3] was active: 26.4 µM and inconclusive: 5.17 µM [inhibitor, partial curve] and inconclusive: 1.64 µM [inhibitor, full curve].
In the case of NC[C@@H]1O[C@@H](O[C@H]2[C@@H](O)[C@H](O[C@@H]3[C@@H](O)[C@@H](N)C[C@H](N)[C@H]3O[C@H]3O[C@H](CN)[C@@H](O)[C@@H](O)[C@H]3N)O[C@H]2CO)[C@H](N)[C@@H](O)[C@@H]1O, the Potency [1] is reported as inconclusive: 18.7 µM [inhibitor, partial curve, poor fit] and the Potency [6] is reported as inconclusive: 6.62 µM [inhibitor, partial curve, poor fit].
